Test results published in PubChem BioAssay AID903 (National Center for Advancing Translational Sciences (NCATS), 2007).
About 340 (0.62%) of roughly 55,000 compounds were called active. The inconclusive results got no clear call from the source; some entries with a clear call stand among them for comparison. The call rests on the fitted dose curve; in most records, active means well fitted cell-killing curve with a large enough effect; inconclusive means small, poorly fitted or top-dose-only effect; inactive means no such curve, though single readings can be large or run the other way. Potencies of inconclusive entries are doubtful fits and often do not repeat.

Assay: qHTS Screen for Compounds that Selectively Target Cancer Cells with p53 Mutations: Cytotoxicity of p53 Null Cells at the Permissive Temperature; further: nearly all actives have a fitted effect of over 55% in size;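 on activity change, negative = cytotoxicity: 0% = DMSO only and -100% = full killing by 100 µM tamoxifen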
Conditions: H1299-neo p53 null cells, ATP luminescence, 24 h, 32C; series mostly up to 46.1 µM; activity change, negative = cytotoxicity: at the top concentration
Summary of the method: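 H1299-neo (p53-null) cells, 600/well, were pre-incubated overnight at 37C, then exposed to compounds at up to 46 uM for 24 hr at 32C. Viability was measured as ATP content by luminescence, and AC50 values came from Hill fits.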
Potency means the concentration at half of the fitted maximal effect; tags describe the fitted curve by direction and shape.

Row | Structure (SMILES) | Potency | activity change, negative = cytotoxicity
1 | COc1cccc(C(=O)Nc2c(C(=O)Nc3ccc(F)cc3)oc3ccccc23)c1OC | inconclusive: 35.5 µM [cytotoxic, single point] | 
2 | CCOc1ccc(-c2nnc(SCC(=O)Nc3cccc(C#N)c3)o2)cc1 | inconclusive: 15.8 µM [cytotoxic, partial curve] | 
3 | COc1ccc(/C=N/NC(=S)Nc2cccc(C(=O)O)c2)cc1OC | inconclusive: 10 µM [cytotoxic, partial curve] | 
4 | COc1ccc(-c2nnc(C3CCN(S(=O)(=O)c4cccc(Cl)c4)CC3)o2)cc1 | inconclusive: 35.5 µM [cytotoxic, single point] | 
5 | COc1cc(-c2nc(SCC(=O)Nc3ccc4c(c3)OCO4)c(-c3ccccc3)[nH]2)cc(OC)c1OC |  | inactive: 17.2%
6 | CCc1ccc(CNC(=O)C2CCCN(c3nnc(C)c4c(C)n(-c5ccccc5)nc34)C2)cc1 (stereo not drawn) |  | inactive: -24.1%
7 | CC(=O)Nc1ccc(NC(=O)CN(C)S(=O)(=O)c2ccc3c(c2)CCCC(=O)N3)cc1 |  | inactive: 5.42%
8 | Cc1ccc(-n2ncc3c(N4CCCCCC4)ncnc32)cc1Cl | inconclusive: 1.58 µM [cytotoxic, full curve, poor fit] | 
9 | Clc1cccc(-n2ncc3c(NC4CCCCC4)ncnc32)c1 | inconclusive: 12.6 µM [cytotoxic, single point] | 
10 | Cc1ccccc1S(=O)Cc1ccc(C(=O)NC2CCCCCC2)o1 (stereo not drawn) |  | inactive: 4.95%
11 | COc1ccc(-n2nc3c(N4CCC(C(=O)NCc5ccccc5C)CC4)nnc(C)c3c2C)cc1 | inconclusive: 31.6 µM [cytotoxic, single point] | 
12 | COc1ccc(Cl)cc1NC(=O)CSC1=Nc2ccccc2C2=NC(CCC(=O)NCc3ccco3)C(=O)N12 (stereo not drawn) |  | inactive: 17%
13 | O=c1cc(-c2ccc3c(c2)OCCO3)oc2ccc(Cl)cc12 | inconclusive: 7.08 µM [cytotoxic, partial curve] | 
14 | CC(=O)c1ccc(NS(=O)(=O)c2ccc3c(c2)NC(=O)CCS3)cc1 |  | inactive: -0.426%
15 | Oc1c(C(Nc2ccccn2)c2ccccc2F)ccc2cccnc12 (stereo not drawn) | inconclusive: 3.16 µM [cytotoxic, partial curve] | 
16 | Cc1ccc(NC(=O)C2CCN(S(=O)(=O)c3cccc4nsnc34)CC2)cc1F |  | inactive: 4.24%
17 | Cc1cccc(N2CCN(C3=C(c4ccccc4)C(=O)c4ccccc43)CC2)c1C |  | inactive: 4.86%
18 | COc1ccc(C(Nc2ccccn2)c2ccc3ccc(C)nc3c2O)cc1C (stereo not drawn) | inconclusive: 31.6 µM [cytotoxic, single point] | 
19 | CSc1ccccc1NC(=O)CCS(=O)(=O)c1nc(-c2ccc3c(c2)OCO3)cc(C(F)(F)F)n1 | inconclusive: 31.6 µM [cytotoxic, single point] | 
20 | COc1ccc(-c2nc3sc(CCNC(=O)c4ccc(Br)o4)c(C)n3n2)cc1 | inconclusive: 20 µM [cytotoxic, partial curve, poor fit] | 
21 | COc1ccc(NC(=O)CSc2nc(-c3cccs3)cc(C(F)(F)F)n2)cc1OC |  | inactive: -28%
22 | Cc1ccc(CN2CCSc3ccc(C(=O)N4CCN(c5ccccc5)CC4)cc32)cc1 | inconclusive: 5.01 µM [cytotoxic, single point] | 

Row | Structure (SMILES) | Potency | activity change, negative = cytotoxicity
23 | COc1ccccc1/C=C/c1nc2ccccc2n1C(C)C | inconclusive: 10 µM [cytotoxic, partial curve] | 
24 | Cc1nnc(N2CCC(C(=O)NCCc3ccccc3Cl)CC2)c2nn(-c3ccccc3)c(C)c12 | inconclusive: 31.6 µM [cytotoxic, single point] | 
25 | Cc1nc(NCCc2ccccc2)c(C#N)c(C)c1[N+](=O)[O-] | inconclusive: 22.4 µM [cytotoxic, partial curve, poor fit] | 
26 | COc1ccc(NC(=O)CSc2nnc(NC(=O)Nc3ccc(OC)cc3)s2)cc1 | inconclusive: 15.8 µM [cytotoxic, partial curve] | 
27 | CCC(C(=O)Nc1c(C)cc(C)cc1C)n1c(=O)c(-c2ccccc2NC(C)=O)nc2ccccc21 (stereo not drawn) |  | inactive: -1.85%
28 | CCOC(=O)C1CCCN(C(=O)c2cc3c(=O)[nH]c4ccc(C)cc4c3s2)C1 (stereo not drawn) | inconclusive: 22.4 µM [cytotoxic, single point] | 
29 | CCCCOc1ccc(C(=O)C(CN2CCOCC2)c2ccccc2)cc1 (stereo not drawn) | inconclusive: 35.5 µM [cytotoxic, single point] | 
30 | COc1ccc(OC)c(NC(=O)c2cc(S(=O)(=O)NCCc3ccc(Cl)cc3)ccc2F)c1 |  | inactive: -2.94%
31 | Fc1cccc(Cl)c1Cn1c(-c2cccs2)nc2ccccc21 | inconclusive: 15.8 µM [cytotoxic, single point] | 
32 | COc1ccc2nc(-c3cccc(N)c3)[nH]c2c1 | active: 10 µM | 
33 | O=C(Nc1ccc2nc(-c3cccnc3)[nH]c2c1)C1CCCCC1 | inconclusive: 25.1 µM [cytotoxic, single point] | 
34 | CCC(C(=O)NCCc1ccc(SC)cc1)n1nc(C)c2sc3ccccc3c2c1=O (stereo not drawn) |  | inactive: -1.37%
35 | Cc1ccc(C(=O)Nc2cccc(C(=O)O)c2)cc1S(=O)(=O)N1CCCC1 | inconclusive: 10 µM [cytotoxic, partial curve] | 
36 | CCCn1ccc2c(OCC(=O)NCc3ccc(C)cc3)cccc2c1=O |  | inactive: 10.5%
37 | Cc1cc2oc(C(=O)Nc3c(C(=O)Nc4ccccc4)oc4ccccc34)cc(=O)c2cc1C |  | inactive: -1.05%
38 | COc1cc(C(=O)N2CCC(c3nc4ccccc4s3)CC2)cc(OC)c1OC |  | inactive: -4.23%
39 | COc1ccc(-c2nc3ccccc3s2)cc1NC(=O)c1cccc([N+](=O)[O-])c1C | inconclusive: 25.1 µM [cytotoxic, single point] | 
40 | O=C(COc1ccccc1F)Nc1ccc2nc(SCC(=O)N3CCCC3)sc2c1 | inconclusive: 12.6 µM [cytotoxic, single point] | 
41 | CC(=O)Nc1ccc(S(=O)(=O)Nc2cccc(-c3ccc(N4CCCCCC4)nn3)c2)cc1 | inconclusive: 12.6 µM [cytotoxic, partial curve] | 
42 | Cc1ccc(CN2c3ccccc3-c3nc(SCC(=O)Nc4c(C)cc(C)cc4C)ncc3S2(=O)=O)cc1 |  | inactive: -9.57%
43 | COc1ccc(-c2cc3nc(C)c(CCC(=O)N4CCN(c5ccccc5F)CC4)c(C)n3n2)c(OC)c1 |  | inactive: -9.68%
